In PubChem BioAssay AID720707 (National Center for Advancing Translational Sciences (NCATS), 2013):
Out of some 360,000 compounds screened, about 270 (0.075%) were called active. The shares of active, inactive and inconclusive entries below differ from those in the screen. Calls follow the shape of the dose curve; as a rule, active = well fitted activation curve with a large enough effect; inconclusive = small, poorly fitted or top-dose-only effect; inactive = no such curve, though single readings can be large or run the other way. Where the call is inconclusive, the potency comes from a doubtful curve fit.

The compounds below were run against Rap guanine nucleotide exchange factor 3 (Homo sapiens) (UniProt O95398) (assay: qHTS for Agonist of cAMP-regulated guanine nucleotide exchange factor 3 (EPAC1): primary screen). Details: biochemical assay; activation: at 154 µM (top of the series), 100% = response to 6.5 mM cAMP.
UniProt O95398, sequence (O95398 whole entry, looked up): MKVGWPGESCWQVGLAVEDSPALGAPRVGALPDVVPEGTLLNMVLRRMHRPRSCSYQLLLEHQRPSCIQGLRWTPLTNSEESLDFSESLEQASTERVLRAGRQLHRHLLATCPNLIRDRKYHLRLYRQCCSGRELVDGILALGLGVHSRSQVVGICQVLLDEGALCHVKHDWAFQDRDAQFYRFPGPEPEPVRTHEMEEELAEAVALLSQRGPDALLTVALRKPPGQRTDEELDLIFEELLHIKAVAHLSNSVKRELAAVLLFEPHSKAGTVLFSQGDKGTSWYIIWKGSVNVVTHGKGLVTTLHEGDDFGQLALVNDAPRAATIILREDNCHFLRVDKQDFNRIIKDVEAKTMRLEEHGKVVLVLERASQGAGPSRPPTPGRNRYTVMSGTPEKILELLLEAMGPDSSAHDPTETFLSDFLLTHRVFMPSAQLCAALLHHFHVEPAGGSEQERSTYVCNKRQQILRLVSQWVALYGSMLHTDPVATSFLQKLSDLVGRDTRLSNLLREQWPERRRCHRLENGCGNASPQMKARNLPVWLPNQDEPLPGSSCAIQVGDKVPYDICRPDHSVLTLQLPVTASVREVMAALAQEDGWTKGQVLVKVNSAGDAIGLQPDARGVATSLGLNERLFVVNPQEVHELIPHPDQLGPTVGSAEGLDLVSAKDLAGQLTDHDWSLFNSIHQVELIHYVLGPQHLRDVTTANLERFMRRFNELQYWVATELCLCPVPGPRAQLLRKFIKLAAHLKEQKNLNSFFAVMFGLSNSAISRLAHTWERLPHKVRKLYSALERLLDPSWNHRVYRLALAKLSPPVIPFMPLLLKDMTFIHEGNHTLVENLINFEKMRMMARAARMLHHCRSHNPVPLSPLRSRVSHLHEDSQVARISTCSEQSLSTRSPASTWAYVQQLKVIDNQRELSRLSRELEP
In short: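 Normalized to 6.5 mM cAMP, activity reflects EPAC1-catalysed release of BODIPY-GDP from Rap1B, followed kinetically over 30 min at 480 nm excitation, 540 nm emission. Reaction contained 100 nM EPAC1, 250 nM Rap1B-BODIPY-GDP, 50 uM GDP.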
Also: nearly all actives have a fitted effect of over 60% in size.
Potency is read from the fitted curve at half-maximal effect; tags tell the direction and shape of the fitted curve.

Potency, inactive:
Cc1nc(Nc2cnc(/C=C/c3cc(C(=O)Nc4cccc(C(F)(F)F)c4)ccc3C)cn2)cc(N2CCNCC2)n1
CC(C)(C)OC(=O)NCCC(=O)Oc1ccc2ccc(=O)oc2c1
O=C(/C=C\NCC(=O)c1ccccc1)c1ccc(F)cc1
O=C(CCNc1ccccc1)c1cccc([N+](=O)[O-])c1
COc1ccc2sc(NC(=O)CC(C)C)nc2c1
COCCNc1nnc(Cc2ccccc2)c(=O)[nH]1
Cc1cccc(NC(=O)CSc2nnc(-c3ccccc3C)o2)c1
C/C=C/C=C/C(=O)N1CC2(CC(c3cccc(NC(=O)/C=C/C)c3)=NO2)C[C@@H]1C(N)=O (stereo partly drawn)
O=C1/C(=C\c2ccc(Br)cc2)SC(=S)N1NS(=O)(=O)c1ccccc1
CCOc1cc(N2CCOCC2)c(OCC)cc1NC(=O)CSc1ncn[nH]1
O=C(C[C@H]1C=C[C@H](NC(=O)Nc2ccccc2F)[C@@H](CO)O1)NCc1ccc(-c2ccccc2)cc1
COc1ccc(/C=N/NC(N)=S)cc1OC(=O)c1cccc2ccccc12
CC1(C)CC(=O)C2=C(C1)N(c1ccccc1)C(=O)C(C(=O)OCc1ccccc1)C2 (stereo not drawn)
CCn1c(O)c(/C=N/N=C/c2ccc(OC)cc2)c2cc(C3=NNC(=O)CC3)ccc21
COc1ccc(NC(=O)CN(c2ccccc2OC)S(=O)(=O)c2cccs2)cc1Cl
COc1ccc(CSc2ccc(S(=O)(=O)N3CCCC3)cn2)cc1F
CC(=O)Nc1ccc(S(=O)(=O)NNC(=O)c2ccc([N+](=O)[O-])cc2)cc1
COc1ccc(C(=O)Nc2ccc(NC(=O)c3cccs3)cn2)cc1

Potency, inconclusive:
CCN(c1cccc(C)c1)S(=O)(=O)c1cc2c3c(c1)CCN3C(=O)CC2 126 µM [activator, single point]
O=C(NC(NC(=S)Nc1ccccc1)C(Cl)(Cl)Cl)c1cccc(Cl)c1 (stereo not drawn) 100 µM [activator, partial curve]
CCN1CCN(c2ccc(S(=O)(=O)N3CCOCC3)cc2NC(=O)c2cc(Cl)nc3ccccc23)CC1 100 µM [activator, partial curve]
O=C(NCCCc1ccccc1)c1ccc(-n2cncn2)c([N+](=O)[O-])c1 126 µM [activator, partial curve, poor fit]
O=C(O)CCCNc1cc(N2CCN(C(=O)c3ccco3)CC2)c2noc3c2c1C(=O)c1ccccc1-3 44.7 µM [activator, full curve]
CC(=O)c1ccc(N2C(=O)C3C(C2=O)C(C(=O)c2ccc(Cl)cc2)N2CCCC32)cc1 (stereo not drawn) 63.1 µM [activator, partial curve]
CCOC(=O)N1CCN(C(=O)c2cc(S(=O)(=O)N3CCc4ccccc43)ccc2OC)CC1 112 µM [activator, partial curve, poor fit]
O=C(Nc1ccncc1)c1cc2ccccc2cc1O 63.1 µM [activator, full curve, poor fit]
COc1cccc(OC)c1-c1nn2c(-c3cc(-c4ccccc4)n[nH]3)nnc2s1 25.1 µM [activator, full curve]
CCOc1ccc(CCNC(=O)c2cccc(S(=O)(=O)N3CCCCC3)c2)cc1OCC 112 µM [activator, partial curve, poor fit]
Cc1cccc(NC(=O)c2cc(S(=O)(=O)N(C)c3ccc(F)cc3)ccc2Cl)n1 126 µM [activator, partial curve, poor fit]
CSc1ccc(S(=O)(=O)Nc2ccc(N3CCOCC3)c(Cl)c2)cc1 100 µM [activator, partial curve]
Cc1nn(Cc2cccc3ccccc23)c(C)c1NC(=O)c1cccnc1 126 µM [activator, single point]
O=C(CSc1ccc2ccccc2n1)c1ccc2c(c1)OCO2 100 µM [activator, partial curve]
CCN(CC)c1ccc2c(c1)OC(N)=C(C#N)C2c1cccnc1 (stereo not drawn) 50.1 µM [activator, partial curve]
CCOc1ccc(S(=O)(=O)NCCC(=O)N2CCCCCCC2)cc1 50.1 µM [activator, single point]
COc1ccccc1NC(=O)C(C)OC(=O)COc1cccc2c1OC(C)(C)C2 (stereo not drawn) 112 µM [activator, single point]
NS(=O)(=O)c1ccc(NCc2ccccc2OCc2ccc(F)cc2)cc1 63.1 µM [activator, partial curve]
Cn1cccc1/C=C1\SC(=S)N(NC(=O)c2cccc(Cl)c2)C1=O 100 µM [activator, partial curve]
CCN(CC(=O)Nc1c(F)cccc1F)C(=O)C1CC(=O)N(c2ccc3c(c2)OCCO3)C1 (stereo not drawn) 126 µM [activator, single point]
Cc1cc2nc3c(=O)n(CCc4ccccc4)c(=O)[nH]c3nc2cc1N 126 µM [activator, single point]
CCOC(=O)N1CCN(C(=O)C[C@@H]2C[C@@]3(C(=O)OC)CCCCC=C3N(Cc3cccc4ccccc34)C2=O)CC1 3.16 µM [activator, full curve, poor fit]
COc1ccc(C2CC(c3cccs3)=Nc3ccccc3S2)cc1 (stereo not drawn) 126 µM [activator, single point]
O=C(COC(=O)/C=C/c1cccc(C(F)(F)F)c1)NC(=O)NC1CCCC1 126 µM [activator, partial curve, poor fit]
C/C(CCc1ccc2c(c1)OCO2)=N\N=C(/N)SC1CC(=O)N(c2ccc(Cl)cc2)C1=O (stereo not drawn) 112 µM [activator, single point]
CC1CCCC(n2c(=S)[nH]c3ccccc3c2=O)C1C (stereo not drawn) 100 µM [activator, partial curve]
CN(c1ccccc1)S(=O)(=O)c1ccc(C(=O)Nc2ccncc2)cc1 35.5 µM [activator, full curve]
Cc1ccc(NC(=S)NCc2ccc(Cl)cc2)c(OC(F)F)c1 28.2 µM [activator, partial curve]
O=C(Nc1nc(-c2cc(F)ccc2F)cs1)C1=COCCO1 112 µM [activator, single point]
CCCN1CC=C2C(C#N)=C(N)C(C#N)(C#N)C(c3cccc(OC)c3OC)C2C1 (stereo not drawn) 100 µM [activator, partial curve]
CC1CCCN(C(=O)COC(=O)CNC(=O)c2ccc(Br)cc2)C1 (stereo not drawn) 56.2 µM [activator, partial curve, poor fit]
CCCCN(CCCC)C1=Nc2ccccc2N/C1=C(/C#N)C(=O)OCC 126 µM [activator, single point]
COc1ccc(NC2CCCN(C(=O)COc3ccc(Cl)cc3C)C2)cc1OC (stereo not drawn) 3.16 µM [activator, full curve, poor fit]
Cc1cccc(-c2nc(Nc3ccc(O)cc3)c3ccccc3n2)c1 70.8 µM [activator, partial curve, poor fit]
Cc1ccc(CNc2oc(-c3cccs3)nc2C#N)cc1 63.1 µM [activator, partial curve]
CCOc1ccc(C(=O)NCC(=O)Nc2ncccc2C)cc1OCC 25.1 µM [activator, single point]
O=C1C(N2CCOCC2)=Cc2cccc3cccc1c23 112 µM [activator, partial curve]
CC1CCc2c(C(=O)Oc3cccc(-n4cnnn4)c3)csc2C1 (stereo not drawn) 126 µM [activator, single point]
O=C(COC(=O)c1ccccc1NCCO)NCCC1=CCCCC1 126 µM [activator, single point]
CCCCCn1nc(C(=O)N(CCOC)c2c(N)n(CCCC)c(=O)[nH]c2=O)c2ccccc2c1=O 126 µM [activator, single point]

Potency, active:
CN1CCS/C1=C\C=C1/SC(=S)N(CC(=O)O)C1=O 22.4 µM
Cc1cc2nc3c(=O)n(Cc4ccccc4)c(=O)[nH]c3nc2cc1N 100 µM
O=C(O)c1cc(Cl)ccc1-c1ccc(/C=C/c2cc(C(F)(F)F)[nH]c(=O)n2)o1 89.1 µM
CSc1cccc(N2CC(C(=O)Nc3cccc(S(=O)(=O)N4CCCC4)c3)CC2=O)c1 (stereo not drawn) 50.1 µM
CCN1CCN(Cc2c(O)ccc3c2O/C(=C\C=C\c2ccccc2)C3=O)CC1 100 µM
CC1CCCN(c2nc3ccccc3nc2C(C#N)S(=O)(=O)c2ccccc2)C1 (stereo not drawn) 56.2 µM
O=C1c2cccc3c(O)ccc(c23)C(=O)N1Cc1ccco1 56.2 µM
N#C/C(=C\c1ccc(N2CCOCC2)o1)c1nc2ccccc2[nH]1 63.1 µM
N#C/C(=C\c1ccc(C(=O)O)cc1)c1nc2sc3c(c2c(=O)[nH]1)CCCC3 31.6 µM

activation, inconclusive:
COc1ccc(NC(=O)CSc2nc(=O)n(CCN(C)C)c3c2CCCC3)cc1 37% [activator]
